From PubChem BioAssay AID1508624 (National Center for Advancing Translational Sciences (NCATS), 2021)
Screen size: about 48,000 compounds; about 120 (0.25%) were called active. About 4% were inconclusive and are not listed. Calls follow the shape of the dose curve; as a rule, active = well fitted activation curve with a large enough effect; inconclusive = small, poorly fitted or top-dose-only effect, or another doubt; inactive = no such curve, though single readings can be large or run the other way. The list shows a part of the results.

Test: Primary qHTS for Identification of Small Molecule Activators of Huntingtin-Antisense Promoter Activity; also: nearly all actives have a fitted effect of over 55% in size
Conditions: HEK293 HTT-AS promoter firefly luciferase reporter, 24 h; series mostly up to 57.5 µM; activity change, positive = activation: at the top concentration
In short: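 HEK293 luciferase promoter-reporter cells (2,500/well) plated 24 h, then compounds added at up to 57.5 uM final for 24 h at 37 °C. Firefly luminescence by Dual-Glo, normalized to vehicle (0%) and zero RLU (-100%).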

Activity change, positive = activation, inactive:
CCCCOCc1cc(CN2CCN(c3cccc(Cl)c3)CC2)c(O)c2ncccc12 -38.6%
Cc1ccc(N2CCN(C(=O)c3cn(C)c4ccc(S(=O)(=O)N(C)C5CCCCC5)cc4c3=O)CC2C)cc1 (centres undefined) -1.61% [at 11.5 µM, percent change from vehicle, -100% = no light]
Cn1ccnc1SCC(=O)Nc1cc(Cl)ccc1Cl 11.2%
CCCCNC(=O)CCc1c(C)nc2c(c(C)nn2-c2ccccc2)c1C -22.6%
CCN(CC)c1ccc(C2C(C(N)=O)=C(C)Nc3ncnn32)cc1 (centres undefined) -17%
Cc1ccc(NC(=O)C2CCCN2S(=O)(=O)c2cccc3cccnc23)cc1C (centres undefined) -30.7%
Cc1ccccc1CN1CCCN(CC(=O)Nc2c(C)cccc2C)S1(=O)=O -12.3%
O=C(NCCc1ccccc1)c1cc(Sc2ccc(F)cc2F)nc2ccccc12 -8.29%
COc1cccc(OCc2nc3ccccc3n2CCOc2cccc(C)c2)c1 8.88%
Cc1cccc(CS(=O)(=O)c2ncc(Cl)c(C(=O)NCc3ccccc3)n2)c1 -85.5%
COc1ccc(NS(=O)(=O)c2ccc3[nH]c4c(c3c2)CCCCCC4)cc1 -27.7%
Cn1c(=O)c2c(nc(SCC(=O)Nc3ccc(F)cc3)n2Cc2ccccc2)n(C)c1=O 12.4%
Fc1ccc(CNc2nc(-c3ccccc3)cc(C(F)(F)F)n2)cc1 -24.9%
Cc1cc(O)c(C(C)C)cc1Cl -0.0415%
O=C1CC(c2ccc(Cl)cc2)N=C(NC(=O)c2ccccc2)N1 (centres undefined) -9.81%
Cc1ccccc1CS(=O)(=O)Cc1ccc(C(=O)NCc2ccc(F)cc2)o1 -32.4%
Cc1ccc(C)c(NC(=O)c2cc(=O)c3cc(C)cc(C)c3o2)c1 11.2% [at 11.5 µM, percent change from vehicle, -100% = no light]
Cc1ccc(NC(=O)Cn2c(=O)ccc3cc(S(=O)(=O)N4CCC(C)CC4)ccc32)cc1Cl -43.2%
COc1cccc(NC(=O)CCNC(=O)Cn2ccc3ccccc3c2=O)c1 0%
CC(C)C(=O)OCc1cc(=O)n2nc(C3CCCCC3)sc2n1 11.6%
OC[C@H]1O[C@@H](Oc2ccc(O)cc2)[C@H](O)[C@@H](O)[C@H]1O -9.96%
COCCNc1ncnc2c1c(-c1ccccc1)cn2-c1cccc(Cl)c1 -11.6%
CCc1ccc(NCc2cc3cc4c(cc3n(CC(=O)Nc3ccc(F)cc3)c2=O)OCCO4)cc1 -16.1%
Cc1ccc(NC(=O)CSc2nnc(N)s2)c(C)c1 -1.52%
COc1ccc(CNC(=O)C2CCN(S(=O)(=O)c3cccc4nonc34)CC2)cc1OC -7.15%
Oc1c(C(c2ccccc2)N2CCN(c3ccccc3)CC2)sc2nc(-c3ccco3)nn12 (centres undefined) -8.52%
O=C(NCCc1ccccc1)C(=O)Nc1cccc(Br)c1 19.1%
Cn1c(CCNC(=O)c2ccco2)nc2cc(NC(=O)COc3ccc(Cl)cc3)ccc21 -12.8%
CO/N=C(\C(=O)O)c1csc(NC(=O)CCl)n1 2.87%
O=C(CSc1nc(=O)[nH]c2c1CCC2)NCc1ccccc1 -6.7%
C=CC1=C(C(=O)O)N2C(=O)[C@@H](NC(=O)C(=NO)c3csc(N)n3)[C@H]2SC1 -6.15%
Cc1ccc(C(=O)COC(=O)CCC(=O)Nc2ccc(Oc3ccccc3)cc2)cc1C -7.66%
CCc1ccc(C2c3c(oc4ccc(C)cc4c3=O)C(=O)N2c2nc(C)c(C)s2)cc1 (centres undefined) -5.43%
CCOc1cc(C2c3c(-c4ccccc4O)n[nH]c3C(=O)N2CCc2ccccc2)ccc1O (centres undefined) -34.7%
COc1ccc(-c2cc(C(F)(F)F)nc(SCCC(=O)Nc3c(C)cccc3C)n2)cc1 -8.28%
COc1cccc(-c2ccc3c(N)c(C(=O)Nc4ccc(C)c(F)c4)sc3n2)c1 -11.7%
COc1cc(NC(=O)Cn2cc(S(=O)(=O)c3ccccc3)c(=O)c3ccccc32)cc(OC)c1 1.99%
Cc1ccc(OCC(=O)Nc2ccc(C(=O)OCc3cc(=O)n4c(C)csc4n3)cc2)cc1 -15.4%
COc1ccc(-c2onc(C)c2C)cc1S(=O)(=O)NC1CCC(C)CC1 (centres undefined) -33.1%
O=C(NCC12CC3CC(CC(C3)C1)C2)c1cc2nc(-c3ccc(F)cc3)cc(C(F)(F)F)n2n1 -2.7%
O=C(Nc1ccc(F)cc1F)c1ccc(-n2cnnc2)cc1 -3.99% [at 11.5 µM, percent change from vehicle, -100% = no light]
Cc1cc(-n2c(C)nc3ccccc3c2=O)ccc1NC(=O)c1cccc([N+](=O)[O-])c1 -1.61%
Cc1cccc(NC(=O)CSc2cc(C)c3ccccc3n2)c1 1.71%
CCc1ccccc1NC(=O)Cc1c(C(=O)O)[nH]c2ccc(Cl)cc12 0.23%
Cc1ccc(Cn2c(CNC(=O)c3ccccc3Br)nc3cccnc32)cc1 -21.2%
COc1ccc(N2CCN(C(=O)Nc3cccc(C(F)(F)F)c3)CC2)cc1 -22.3%
CC(C)CNC(=O)C1=CC(c2ccc3c(c2)OCO3)=NS(=O)(=O)N1C -13.6%
Cc1ccc(-n2c(=O)c3oc4ccccc4c3n(CC(=O)Nc3ccccc3)c2=O)cc1C -25.8%
CCn1c(CN2CCOCC2)nc2cc(NC(=O)c3cc(OC)c(OC)c(OC)c3)ccc21 -9.57%
CC(=O)c1ccc(NC(=O)C2CCC(CNS(=O)(=O)c3ccc4c(c3)CCCC(=O)N4)CC2)cc1 (centres undefined) -0.985%
NCCCC(O)(P(=O)(O)O)P(=O)(O)O
CSc1nn(Cc2ccc(Br)cc2)c(N(C(C)=O)C(C)=O)c1S(=O)(=O)c1ccccc1 -39.1%
CC1CCN(C(=O)Cn2ncc3c4ccccc4n(Cc4ccc(Cl)cc4)c3c2=O)CC1 -12.4%
COc1ccc(-c2cc(C(=O)NCc3ccccc3)c3c(-c4ccccc4)[nH]nc3n2)cc1 -5.87%
COc1ccccc1N1CCN(C(=O)Cc2c(C(=O)O)c(C)cn2C)CC1 -14%
CCc1ccccc1NC(=O)C1CCCN(c2nnc(-n3c(C)ccc3C)s2)C1 (centres undefined) -12.5%
CCCCSCCCNC(=O)C1CCC(CNS(=O)(=O)c2ccccc2)CC1 (centres undefined) -34.8%
COc1ccc(-n2c(SCc3ccccc3F)nc3c([nH]c4ccccc43)c2=O)cc1 -27.9%
CCOc1ccc(NC(=O)c2ccc(F)c(S(=O)(=O)NCc3ccc4c(c3)OCO4)c2)cc1 -37%
CNC[C@H](O)[C@@H](O)[C@H](O)[C@H](O)CO -8.71%
O=C(NCCCc1nc2ccccc2n1Cc1ccc(Cl)cc1)c1ccco1 -34.7%
O=C(Cn1cc(S(=O)(=O)Cc2ccc(F)cc2)c2ccccc21)NCc1ccccc1Cl -16.4%
Cc1ccccc1CSc1nnc2[nH]c(=O)cc(C)n12 2.55%
Cc1oc2ncn(CC(C)C)c(=O)c2c1C(=O)NCCCN(Cc1ccccc1)C(C)C -21.1%
CCOc1ccc(NC(=O)CSc2nnc(-c3ccc(C)cc3)c(-c3ccc(C)cc3)n2)cc1 -14.5%
O=C(NC1CC(=O)N(c2ccc(Cl)cc2)C1)c1ccc(S(=O)(=O)N2CCCC2)cc1 (centres undefined) -30.4%
COc1ccc(CCNC(=O)CS(=O)Cc2nc(-c3ccc(C)cc3)oc2C)c(OC)c1 (centres undefined) -19.7%
COc1ccc(CCNC(=O)C(=O)NCC(c2ccco2)S(=O)(=O)c2ccccc2)cc1OC (centres undefined) -11.6%
O=C(Cn1c(=O)nc(-c2ccccc2)c2ccccc21)NCCCc1ccccc1 -7.81%
CCc1cccc(C)c1NC(=O)CSc1nnc(N)s1 -5.87%
CCOc1ccccc1NS(=O)(=O)c1cnc(N)nc1 -8.09%
Cc1ccccc1N1CCN(S(=O)(=O)c2nnc(NC(=O)c3ccc(Cl)cc3)s2)CC1 -28.6%
Nc1ccc(S(=O)(=O)Nc2cnc3ccccc3n2)cc1 3.23%
CCCC12CN3CC(C)(CN(C1)C3c1cn(C)c3ccccc13)C2=O (centres undefined) -3.26%
CCSc1ncc(Cl)c(C(=O)N2CCN(c3ccc(OC)cc3)CC2)n1 -26.5%
O=C1C(CCS(=O)c2ccccc2)C(=O)N(c2ccccc2)N1c1ccccc1 (centres undefined) -6.93%
O=c1[nH]c(=O)n([C@H]2C[C@@H](O)[C@@H](CO)O2)cc1C=CBr -8.95%
C=Cc1ccc(Cn2c(=O)n(-c3cccc(C)c3)c(=O)c3c2c2cc(C)ccc2n3C)cc1 -35.5%
O=C(Nc1ccc2c(c1)N(C1CCCC1)C(=O)c1ccccc1S2)c1ccc(F)cc1 -39.5%
CCN(CC)CCCNC(=O)c1ccc2nc(CCc3ccccc3)oc2c1 8.86%
O=S(=O)(c1cccc(Cl)c1)c1nnn2c1nc(NC1CCCCCC1)c1sccc12 -16.7%
Cc1ccc(S(=O)(=O)c2c(C)nn(-c3ccccc3)c2OC(=O)c2ccccc2F)cc1 -14.6%
COC(=O)N[C@H](C(=O)N[C@@H](Cc1ccccc1)[C@@H](O)CN(Cc1ccc(-c2ccccn2)cc1)NC(=O)[C@@H](NC(=O)OC)C(C)(C)C)C(C)(C)C
CCN(CC)c1ccc(NC(=O)C2COc3ccc(OC)cc3C2)c(C)c1 (centres undefined) -41.2%
CCOc1ccc(CCNC(=O)c2ccc3nc(CC)c(CC)nc3c2)cc1 0.997%
CCOc1ccc(OCC(=O)Nc2c(C(=O)Nc3ccc(C)cc3)oc3ccccc23)cc1 -9.7%
Cc1c(C(=O)N(C)c2cccc(C(F)(F)F)c2)sc2nc3n(c(=O)c12)CCCCC3 -25.5%
Fc1ccc(CNc2nc3ccc(Cl)cc3n3nnnc23)cc1 16.8%
O=C(c1ccc2c(Cl)c3c(nc2c1)CCCC3)N1CCN(c2cccc(Cl)c2)CC1 -8.65%
CCc1ccc(-c2ccc(C(=O)Oc3ccc(Br)cc3)cc2)nc1 8.97%
COc1ccc(NC(=O)C2=C(C)Nc3nc(SCc4ccccc4)nn3C2c2cc(OC)ccc2OC)cc1 (centres undefined) -0.178%
Cc1c(C)n(C)c2ccc(C(=O)NCCCN3CCCCC3)cc12 -7.94%
Cc1cccc(N2C(=O)CCSC23C(=O)N(Cc2ccc(F)cc2)c2ccccc23)c1 (centres undefined) -53.8%
Cc1ccc(-c2c(C(=O)NCCc3ccc(Cl)cc3)oc(=O)c3ccccc23)cc1 -50%
